# In the supplement of paper PMC12217912:
# The other results are listed elsewhere or left out. The full chains were built here from the parent and the listed change. Inactive controls read about 0.05.
# B1: TEV protease; numbered along this chain (parent)
# chain: MGESLFKGPRDYNPISSSICHLTNESDGHTTSLYGIGFGPFIITNKHLFRRNNGTLVVQSLHGVFKVKDTTTLQQHLVDGRDMIIIRMPKDFPPFPQKLKFREPQREERICLVTTNFQTKSMSSMVSDTSCTFPSGDGIFWKHWIQTKDGQCGSPLVSTRDGFIVGIHSASNFTNTNNYFTSVPKNFMELLTNQEAQQWVSGWRLNADSVLWGGHKVFMVKPEEPFQPVKEATQL
# Variants of: B1
# Assay: raw area under fraction-flipped curve 0-4 h after induction (AUC4h, not background-subtracted), DNA-recorder readout of cleavage of the substrate (dimensionless); higher = more cleavage of the substrate by the protease variant
# Details: temperature: 34 °C; time window: 0-4 h after rhamnose induction
# Protocol: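 In vivo DNA recorder in E. coli TOP10(DE3) ΔrhaA at 34 °C. Each TEVp single-site mutant (parent TEVp 0) is paired with a single-site variant of the 7-mer TEVs (canonical ENLYFQ|S). The substrate sits between flexible linkers in a Bxb1-sfGFP-TEVs-SsrA fusion, so cleavage stabilises Bxb1 and speeds flipping of a recombination array, read by NGS. The value is the raw area under the fraction-flipped curve over 0-4 h after rhamnose induction (AUC4h), with ≥20 reads per time point. It is not background-subtracted; inactive controls average about 0.047.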
# 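Further: Bxb1 expression induced with 0.2% (w/v) L-rhamnose at OD600 near 0.5, cultures sampled hourly, flipped fraction per protease–substrate barcode pair counted by paired-end Illumina sequencing.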
Variant,area with substrate ENLYFQA,area with substrate ENLYFQC,area with substrate ENLYFQD,area with substrate ENLYFQH,area with substrate ENLYFQI,area with substrate ENLYFQK,area with substrate ENLYFQL,area with substrate ENLYFQM,area with substrate ENLYFQN,area with substrate ENLYFQP,area with substrate ENLYFQR,area with substrate ENLYFQS,area with substrate ENLYFQT,area with substrate ENLYFQV,area with substrate ENLYFQW,area with substrate ENLYFQY,area with substrate ENLYFQE,area with substrate ENLYFQF,area with substrate ENLYFQG,area with substrate ENLYFQQ
V220L,0.0855,0.126,0.0419,0.0491,0.0688,0.0688,0.0624,0.0621,0.0907,0.0629,0.0598,0.0939,0.0611,0.0614,0.0687,0.0766,–,–,–,–
C20K,0.0495,0.0514,0.0423,0.0497,0.0447,0.0474,0.0477,0.0518,0.0503,0.0563,0.0401,0.0507,0.0433,0.0484,0.0558,0.0316,0.061,0.0509,0.0496,0.0377
A196T,0.0911,0.122,–,–,0.059,0.071,0.057,0.0824,0.0725,0.0759,0.0543,0.0946,0.0626,–,0.06,0.072,–,0.0678,–,–
N206I,–,0.0903,–,–,–,0.0555,0.0522,0.0713,0.0637,–,0.0474,0.0979,0.0426,0.059,0.0625,–,–,–,–,–
E107C,0.0959,–,–,–,–,–,0.0536,–,0.0948,–,–,0.098,0.0529,0.057,–,–,–,–,–,–
G63C,–,0.0925,0.0735,0.0557,0.0629,0.0458,0.0592,0.0736,0.0797,0.0446,0.0548,0.0938,0.0594,0.068,0.0558,0.0778,–,0.0704,0.0962,–
F218A,0.093,0.0952,–,–,0.0431,–,0.065,0.0698,0.0798,–,0.0625,0.0974,–,0.0594,0.0501,0.073,–,0.0698,0.0771,–
F218D,–,0.1,0.0605,–,0.0329,–,–,0.0749,–,–,0.0511,0.095,0.0654,–,0.0603,0.067,–,0.0869,0.155,–
E231P,0.112,–,0.0656,0.0823,–,–,–,0.0793,0.0695,–,–,0.107,0.0639,–,–,–,–,–,0.095,0.0579
E231L,0.0744,–,0.0781,–,–,0.0861,0.0687,0.0855,–,–,0.0531,0.0924,0.0683,0.0624,–,–,–,–,0.0781,–
W199I,0.0567,–,–,–,–,0.0712,–,–,–,0.0809,–,0.0656,0.0472,–,0.0579,–,–,–,0.0419,–
W199M,–,0.0775,0.0635,0.0668,0.0428,0.0609,0.0606,0.0494,0.0693,0.0577,–,0.0685,0.0391,–,0.0607,0.0535,–,–,0.0545,–
R50F,0.121,0.172,0.088,0.104,–,0.0785,0.07,0.136,–,–,0.046,0.141,0.0362,0.0688,0.0806,0.0802,–,–,0.112,–
T147D,0.0498,–,–,0.049,–,–,–,–,0.0737,–,0.0586,0.0638,0.0688,–,–,–,0.079,–,–,0.0829
